Hit rate of the full screen: of about 310,000 compounds, about 14,000 (4.5%) showed an effect of 50% or more. The effect is printed as a negative number. This is one part of the list.
molecular target: human ether-à-go-go-related gene (hERG) potassium channel (human, UniProt Q12809); test: primary screen, population patch clamp on CHO cells stably expressing hERG
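Also: peak tail current of the secondary pulse compared with the same well before compound.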

human ether-à-go-go-related gene (hERG) potassium channel, sequence (Q12809 whole entry, looked up): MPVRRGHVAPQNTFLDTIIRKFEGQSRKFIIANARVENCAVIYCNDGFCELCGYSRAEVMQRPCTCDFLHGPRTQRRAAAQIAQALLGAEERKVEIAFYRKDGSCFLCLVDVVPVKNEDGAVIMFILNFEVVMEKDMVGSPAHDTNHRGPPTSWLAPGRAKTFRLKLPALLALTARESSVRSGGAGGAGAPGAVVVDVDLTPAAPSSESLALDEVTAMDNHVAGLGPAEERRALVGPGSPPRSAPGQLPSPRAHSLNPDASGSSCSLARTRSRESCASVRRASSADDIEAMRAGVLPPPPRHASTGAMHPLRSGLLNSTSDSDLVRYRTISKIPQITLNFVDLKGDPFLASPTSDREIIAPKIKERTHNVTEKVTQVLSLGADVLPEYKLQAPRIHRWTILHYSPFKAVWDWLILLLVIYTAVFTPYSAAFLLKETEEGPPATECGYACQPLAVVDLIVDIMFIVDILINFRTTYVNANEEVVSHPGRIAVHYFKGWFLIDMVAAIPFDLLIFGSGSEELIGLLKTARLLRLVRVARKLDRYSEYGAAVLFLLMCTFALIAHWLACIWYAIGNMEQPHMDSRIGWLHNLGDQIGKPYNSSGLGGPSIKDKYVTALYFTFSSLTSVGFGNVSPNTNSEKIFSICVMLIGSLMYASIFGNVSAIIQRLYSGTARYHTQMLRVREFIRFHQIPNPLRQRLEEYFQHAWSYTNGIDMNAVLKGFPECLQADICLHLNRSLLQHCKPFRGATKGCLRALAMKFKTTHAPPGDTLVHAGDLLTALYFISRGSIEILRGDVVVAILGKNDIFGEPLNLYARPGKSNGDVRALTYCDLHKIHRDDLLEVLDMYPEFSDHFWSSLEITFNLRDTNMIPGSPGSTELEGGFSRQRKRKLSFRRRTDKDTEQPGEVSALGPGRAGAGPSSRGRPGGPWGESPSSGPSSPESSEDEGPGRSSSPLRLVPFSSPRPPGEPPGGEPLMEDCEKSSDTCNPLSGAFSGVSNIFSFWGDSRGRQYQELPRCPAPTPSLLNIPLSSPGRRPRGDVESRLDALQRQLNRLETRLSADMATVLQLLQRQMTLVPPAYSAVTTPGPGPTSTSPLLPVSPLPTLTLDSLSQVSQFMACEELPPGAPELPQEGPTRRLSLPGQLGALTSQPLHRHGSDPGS

| SMILES | hERG current change (%, negative = inhibition) at 10uM [%] |
| --- | --- |
| O=C(NCC1CCCO1)c1cn(Cc2ccccc2)nc1-c1ccccc1 (stereo not shown) | -0.0253 |
| Nn1c(SCC(=O)Nc2ccc3c(c2)OCCO3)nnc1-c1ccncc1 | -22.6 |
| Cl.O[C@@H]1[C@@H](O)C=C2CCN3Cc4cc5c(cc4[C@H]1C23)OCO5 (stereo partly shown) | 20.2 |
| O=C(CSc1nc2ccccc2c(=O)n1CCCN1CCOCC1)N1CCN(c2ccccc2)CC1 | -70.6 |
| O=C(Nc1ccc2nc(-c3ccc(Br)o3)[nH]c2c1)c1ccco1 | -21.4 |
| O=C(CCN1C(=O)/C(=C\c2ccccc2F)SC1=S)N1CCCCC1 | 9.02 |
| CCCC12CN3CC(C)(CN(C1)C3c1ccco1)C2=O (stereo not shown) | -4.64 |
| CCOc1ccc2c(c1)/C(=C(\C(Cl)=C(Cl)Cl)[N+](=O)[O-])N2 | 16.2 |
| CCOc1ccc(-n2c(CCc3ccccc3)n[nH]c2=S)cc1 | -2.91 |
| CCOc1ccc(N(CC(=O)Nc2ccc(C)c(F)c2)C2=NC3CS(=O)(=O)CC3S2)cc1 (stereo not shown) | 2.97 |
| C=CCN1c2ccccc2C(=O)CS1(=O)=O | 2.87 |
| COc1cc2cc(C(=O)O)[nH]c2c(OC)c1OC | 13.3 |
| CC(C)Cn1cnc2c1c(=O)n(C)c(=O)n2C | 27.8 |
| Fc1ccc(C(c2nnnn2Cc2ccccc2)N2CCSCC2)cc1 (stereo not shown) | -2.85 |
| CCc1ccc(NC(=O)COC(=O)CCCC2=NS(=O)(=O)c3ccccc3N2)cc1 | -1.3 |
| COc1ccccc1CCNC(=O)C1CCC(=O)N(C2CC2)C1 (stereo not shown) | 15.9 |
| O=C(CCCOc1ccccc1)Nc1ccc(Cl)cn1 | -3.18 |
| O=C(c1ccccc1-c1ccccc1)N1CCOCC1 | 14.4 |
| N#Cc1c(N)nc2c(c1-c1ccc(Br)s1)CCCC2 | 3.34 |
| COc1ccc(C(=O)Nc2ccc(NC(C)=O)cc2)cc1S(=O)(=O)N1CCCC1 | 14.8 |
| CCn1cc(C(=O)Nc2ccc(Cl)cc2Cl)cn1 | -6.55 |
| O=C(c1ncc[nH]1)c1cccs1 | 6.93 |

| SMILES | hERG current change (%, negative = inhibition) at 10uM [%] |
| --- | --- |
| Cc1ccc(/C=C/C(=O)NCCCN2CCN(CCCNC(=O)/C=C/c3ccc(C)cc3)CC2)cc1 | -0.473 |
| COc1ccc(NC(=S)NC(=O)/C=C/c2ccc(F)cc2)cc1 | 13.6 |
| CCn1c(SCC(=O)Nc2oc(-c3ccccc3)c(-c3ccccc3)c2C#N)nnc1-c1ccncc1 | -68.2 |
| O=C(Nc1ccccc1)C1=C[C@H](c2csc3ccccc23)C[C@H](OCCCCO)O1 | -5.71 |
| CCOc1ccc(S(=O)(=O)N/N=C(\C)c2ccc3c(c2)OCO3)cc1 | 21.9 |
| N#Cc1ccc(C(=O)CSc2nnc(-c3ccc(C(F)(F)F)cn3)s2)cc1 | 18.3 |
| CC1CN(CCC(=O)Nc2ccccc2F)CC(C)O1 (stereo not shown) | 9.33 |
| Cn1cnnc1SCc1ccc(C(=O)n2ncc(C#N)c2N)cc1 | 4.43 |
| CC(=O)Nc1cc(S(=O)(=O)Nc2ccc(C)cc2)c(C)cc1C | 7.32 |
| Cc1cccc(OCC(=O)NCC(=O)N/N=C/c2cccnc2)c1 | 5.67 |
| C/C(=N/OC(=O)CC(C)C)c1cc(-c2ccc(Cl)cc2)no1 | 15 |
| Nc1nonc1-n1nnc(C(=O)N/N=C/c2ccc(OCc3ccccc3F)cc2)c1CN1CCCCC1 | 8.74 |
| COc1ccc(NC(=O)/C=C/c2ccc(S(=O)(=O)N3CCOCC3)cc2)cc1 | 4.44 |
| O=C1CSc2ccc(S(=O)(=O)NCc3ccccc3Cl)cc2N1 | 1.49 |
| O=C(COC(=O)c1ccc(NS(=O)(=O)c2cccs2)cc1O)NC1CCCCC1 | 8.92 |
| Cc1ccc(NC(=O)CSc2nnc(CNC(=O)C34CC5CC(CC(C5)C3)C4)n2-c2ccc(F)cc2)cc1 | 9.39 |
| C=C(C)COc1ccc2c(C)c(CC(=O)N3C[C@H]4C[C@@H](C3)c3cccc(=O)n3C4)c(=O)oc2c1 | -48.5 |
| CNc1c(NS(=O)(=O)c2ccc(F)c(Cl)c2)c(=O)oc2ccccc12 | 3.54 |
| Cc1ccc(NC(=O)CC(C)N2CCCC2)cc1 (stereo not shown) | 7.89 |
| Cc1ccc(CNC(=O)C(=O)NCC2CCCN2S(=O)(=O)c2cccs2)cc1 (stereo not shown) | -36.6 |
| CCOc1ccccc1C1NC(=O)CCC1[N+](=O)[O-] (stereo not shown) | 17.2 |
| CCCNS(=O)(=O)c1ccc(OCC(=O)NCCC2=CCCCC2)cc1 | -9.97 |

| SMILES | hERG current change (%, negative = inhibition) at 10uM [%] |
| --- | --- |
| Clc1ccc(Cn2ccc(C3CC3)n2)cc1 | -1.79 |
| N#CC1=C(N)OC2=C(C(=O)CCC2)C1c1ccc2c(c1)OCO2 (stereo not shown) | 10.3 |
| Cc1ccc(CN(C)CC(=O)NC(C)c2ccccc2)cc1 (stereo not shown) | -16 |
| CC(C)N(Cc1ccccc1)C(=O)/C=C/c1ccccc1[N+](=O)[O-] | -31.4 |
| COc1ccc(-c2noc(=O)n2Cc2ccccc2F)cc1 | -5.9 |
| COc1ccc2cc(C(=O)C3CCCN(Cc4cnc(C)s4)C3)ccc2c1 (stereo not shown) | -28.8 |
| NNC(=O)c1cc2cc(OC(F)(F)F)ccc2[nH]1 | -25.4 |
| O=C(CSc1ncnc2scc(-c3ccccc3)c12)NCc1ccc2c(c1)OCO2 | 13.8 |
| Cc1cc(NC(=O)[C@H](C)NC(=O)c2ccco2)ccc1Br | 13.3 |
| CCC1=Nc2cc(C(=O)NCCCN3CCOCC3)ccc2Sc2ccccc21 | -19.8 |
| CCN(CC)c1ccc(NS(=O)(=O)c2ccc3c(c2)oc(=O)n3C)c(C)c1 | 10.3 |
| Cc1ccc(NC(=O)CN(C)C2CCCCC2)cc1Br.Cl | -28.8 |
| Cc1ccc(C(=O)N(CC(=O)NC2CCCC2)Cc2cccs2)s1 | -43.8 |
| Cc1ccc(CCC(=O)Nc2ncc(Cc3cccc(Cl)c3Cl)s2)o1 | 51.7 |
| NC(=O)SCC(=O)Nc1cccc(Cl)c1 | 8.99 |
| O=C(NNc1nc(Nc2ccccc2)nc(N2CCOCC2)n1)Nc1ccc(Cl)cc1 | 13.2 |
| COc1ccc(/C=N/n2cc(-c3ccccc3)nc2N)cc1 | -35.1 |
| CN1/C(=C\C=N\NC(=O)c2cccnc2)C(C)(C)c2ccccc21 | 7.12 |
| Cc1ccc(N2CC(C(=O)NCCN3CCOCC3)CC2=O)cc1C (stereo not shown) | 10.2 |
| Cn1cnc(S(=O)(=O)Nc2cc(C(F)(F)F)ccc2N2CCOCC2)c1 | 20.1 |
| Cc1noc(C)c1/C=N/Nc1ccc2ccccc2n1 | 7.03 |
| O=C(C1=NN[C@@H]2C(=O)N(Cc3ccccc3)C(=O)[C@H]12)c1ccc([N+](=O)[O-])cc1 | -50.2 |

| SMILES | hERG current change (%, negative = inhibition) at 10uM [%] |
| --- | --- |
| CC(C)C(c1nnnn1Cc1ccc(F)cc1)N1CCN(C(=O)c2ccco2)CC1 (stereo not shown) | -49.1 |
| CC(C)c1nc2oc3c(=O)[nH]cnc3c2c2c1CCC2 | -13.5 |
| CCC(C)(C)NC(=O)CN(C(=O)CNS(=O)(=O)c1ccc(F)cc1)c1ccc2c(c1)OCCO2 | 1.71 |
| O=C(CSc1nnc(-c2ccc(O)cc2)o1)Nc1cccc(O)c1 | 14.8 |
| CCOc1cc(N)c(Cl)cc1C(=O)NCC1CN(Cc2ccc(F)cc2)CCO1.O=C(O)CC(O)(CC(=O)O)C(=O)O (stereo not shown) | -16.7 |
| Clc1ccc(N2CCN(/N=C/c3cccnc3)CC2)cc1 | -1.21 |
| Cc1cc(C)c(S(=O)(=O)NCCn2c(C)cc3ccccc32)c(C)c1 | 9.36 |
| CCOC(=O)c1ccccc1NC(=O)COC(=O)CCC(=O)c1ccccc1 | 16.3 |
| Clc1c(-c2nnc3n2CCC3)sc2ccccc12 | 10.4 |
| COC(=O)c1cnn(-c2ccc(C)c(C)c2)c1-n1cccc1 | -1.03 |
| CCCC(C)c1nc(C(N)=O)c2[nH]c(=O)n(-c3ccc(OC)cc3OC)c2n1 (stereo not shown) | 9.19 |
| O=C(CCS(=O)(=O)c1cccc2nsnc12)NC1CCCCCC1 | 11.4 |
| CCC(CC)NC(=O)Cn1c(C(C)NC(C)=O)nc2ccccc21 (stereo not shown) | 17.6 |
| CC(C)CCNC(=O)CCC(=O)NNc1nc2ccccc2c2nc(-c3ccccc3)nn12 | 5.85 |
| Cn1nc(-c2ccccc2)c(C#N)c1Sc1cccc(Cl)c1 | 12.5 |
| O=C(COC(=O)Cc1ccsc1)Nc1ccccc1Cl | -5.18 |
| O=C(CN1CCN(c2ccccc2O)CC1)NC(=O)NCc1ccccc1 | -9.32 |
| Cc1ccsc1/C=N/NC(=O)c1cccc(S(=O)(=O)Nc2ccccc2Cl)c1 | -11.8 |
| COc1ccc2c(c1OC)C(=O)OC2c1c(O)n(Cc2ccc(F)cc2)c(=O)[nH]c1=O (stereo not shown) | 3.09 |
| O=C1CC(c2cccc(Cl)c2)Cc2nc(N3CCN(c4ccccc4)CC3)ncc21 (stereo not shown) | 11.7 |
| Clc1nc(NCc2cccnc2)nc(N2CCOCC2)n1 | -1.61 |
| CS(=O)(=O)c1ccc(Cl)c(NC(=O)COC(=O)c2ccc(F)cc2Cl)c1 | -3.18 |

From PMC4336329 (PLoS ONE, 2015)
